Laboratory results: the supplement of paper PMC10369915
This is one part of the list. Cut-off read from the data, not from the text of the source: active = 3.2 or more and inactive = the rest. Only a few entries rise above the background.

target: SHP2 C-SH2 domain E139D; test: enrichment score (SH2-bound / input frequency) (ratio); bacterial display of known human phosphotyrosine sites (pTyr-Var adds point mutants) read by sequencing; higher = stronger binding; tyrosines were phosphorylated by kinases first; details: peptide library: pTyr-Var
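Note: displayed peptides selected on beads carrying the immobilized SH2 domain, with library peptides lacking any tyrosine serving as negative controls.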

Enrichment score, inactive:
ETCLAYREKRI [TEKT1_Y118] 0.401
SSQTVYQRVEG [TFR2_Y23] 0.56
SDYSSYARTSI [TERT_Y949] 0.596
NTYEKYLEEEY [TF_Y669_G671E] 0.671
PEVSGYCHYAD [TG_Y234_C237Y] 0.663
RRNSPYSQTMK [TET2_Y819] 0.377
NREGVYTVFAP [TGFBI_Y537] 0.788
CEHRGCLYLAI [TEK_Y897_Y897C] 1.05
VDYQPYRKHKY [TEX37_Y28] 1.21
SHMVDYQPYRK [TEX37_Y25] 0.7
PEVSGYCHFAD [TG_Y234_C237Y_YF] 1.23
CEHRGSLYLAI [TEK_Y897_Y897S] 0.955
LQRCKNSHMEP [TEX45_Y434_Y434N] 1.08
VNYQPYRKHKY [TEX37_Y28_D24N] 0.197
TDISLYPSGGT [TENM4_Y399_V396I] 0.626
HRGCLYLAIEF [TEK_Y899_Y897C_YF] 0.338
SGDDGYAKDAK [TENM4_Y1530] 0.303
HRGFLYLAIEF [TEK_Y899_Y897F_YF] 0.708
NTFEKYLEEEF [TF_Y669_G671E_YF] 1.04

target: SHP2 C-SH2 domain wild-type; test: as above; details: peptide library: pTyr-Var

Enrichment score, inactive:
ETCLAYREKRI [TEKT1_Y118] 0.343
SSQTVYQRVEG [TFR2_Y23] 1.1
SDYSSYARTSI [TERT_Y949] 0.641
NTYEKYLEEEY [TF_Y669_G671E] 0.804
PEVSGYCHYAD [TG_Y234_C237Y] 0.863
RRNSPYSQTMK [TET2_Y819] 0.287
NREGVYTVFAP [TGFBI_Y537] 0.884
CEHRGCLYLAI [TEK_Y897_Y897C] 1.3
VDYQPYRKHKY [TEX37_Y28] 0.835
SHMVDYQPYRK [TEX37_Y25] 0.758
PEVSGYCHFAD [TG_Y234_C237Y_YF] 1.48
CEHRGSLYLAI [TEK_Y897_Y897S] 1.22
LQRCKNSHMEP [TEX45_Y434_Y434N] 2.36
VNYQPYRKHKY [TEX37_Y28_D24N] 0.22
TDISLYPSGGT [TENM4_Y399_V396I] 0.684
HRGCLYLAIEF [TEK_Y899_Y897C_YF] 0.797
SGDDGYAKDAK [TENM4_Y1530] 0.4
HRGFLYLAIEF [TEK_Y899_Y897F_YF] 0.791
NTFEKYLEEEF [TF_Y669_G671E_YF] 0.916

target: SHP2 N-SH2 domain L43F; test: as above; details: peptide library: pTyr-Var

Enrichment score, inactive:
ETCLAYREKRI [TEKT1_Y118] 0.495
SSQTVYQRVEG [TFR2_Y23] 0.69
SDYSSYARTSI [TERT_Y949] 0.529
NTYEKYLEEEY [TF_Y669_G671E] 0.797
PEVSGYCHYAD [TG_Y234_C237Y] 0.815
RRNSPYSQTMK [TET2_Y819] 0.41
NREGVYTVFAP [TGFBI_Y537] 0.954
CEHRGCLYLAI [TEK_Y897_Y897C] 1.16
VDYQPYRKHKY [TEX37_Y28] 1.18
SHMVDYQPYRK [TEX37_Y25] 0.622
PEVSGYCHFAD [TG_Y234_C237Y_YF] 1.08
CEHRGSLYLAI [TEK_Y897_Y897S] 0.808
LQRCKNSHMEP [TEX45_Y434_Y434N] 1.41
VNYQPYRKHKY [TEX37_Y28_D24N] 0.426
TDISLYPSGGT [TENM4_Y399_V396I] 0.687
HRGCLYLAIEF [TEK_Y899_Y897C_YF] 0.859
SGDDGYAKDAK [TENM4_Y1530] 0.336
HRGFLYLAIEF [TEK_Y899_Y897F_YF] 0.441
NTFEKYLEEEF [TF_Y669_G671E_YF] 1.03

target: SHP2 N-SH2 domain T42A; test: as above; details: peptide library: pTyr-Var

Enrichment score, inactive:
ETCLAYREKRI [TEKT1_Y118] 0.319
SSQTVYQRVEG [TFR2_Y23] 0.699
SDYSSYARTSI [TERT_Y949] 0.509
NTYEKYLEEEY [TF_Y669_G671E] 0.702
PEVSGYCHYAD [TG_Y234_C237Y] 0.79
RRNSPYSQTMK [TET2_Y819] 0.453
NREGVYTVFAP [TGFBI_Y537] 0.772
CEHRGCLYLAI [TEK_Y897_Y897C] 0.977
VDYQPYRKHKY [TEX37_Y28] 1.17
SHMVDYQPYRK [TEX37_Y25] 0.727
PEVSGYCHFAD [TG_Y234_C237Y_YF] 0.894
CEHRGSLYLAI [TEK_Y897_Y897S] 0.923
LQRCKNSHMEP [TEX45_Y434_Y434N] 1.03
VNYQPYRKHKY [TEX37_Y28_D24N] 0.341
TDISLYPSGGT [TENM4_Y399_V396I] 0.636
HRGCLYLAIEF [TEK_Y899_Y897C_YF] 0.625
SGDDGYAKDAK [TENM4_Y1530] 0.346
HRGFLYLAIEF [TEK_Y899_Y897F_YF] 0.518
NTFEKYLEEEF [TF_Y669_G671E_YF] 0.861

target: SHP2 N-SH2 domain T52S; test: as above; details: peptide library: pTyr-Var

Enrichment score, inactive:
ETCLAYREKRI [TEKT1_Y118] 0.581
SSQTVYQRVEG [TFR2_Y23] 0.528
SDYSSYARTSI [TERT_Y949] 0.416
NTYEKYLEEEY [TF_Y669_G671E] 0.728
PEVSGYCHYAD [TG_Y234_C237Y] 0.75
RRNSPYSQTMK [TET2_Y819] 0.396
NREGVYTVFAP [TGFBI_Y537] 0.864
CEHRGCLYLAI [TEK_Y897_Y897C] 1.09
VDYQPYRKHKY [TEX37_Y28] 1.09
SHMVDYQPYRK [TEX37_Y25] 0.789
PEVSGYCHFAD [TG_Y234_C237Y_YF] 1.12
CEHRGSLYLAI [TEK_Y897_Y897S] 0.845
LQRCKNSHMEP [TEX45_Y434_Y434N] 1.05
VNYQPYRKHKY [TEX37_Y28_D24N] 0.173
TDISLYPSGGT [TENM4_Y399_V396I] 0.7
HRGCLYLAIEF [TEK_Y899_Y897C_YF] 0.999
SGDDGYAKDAK [TENM4_Y1530] 0.351
HRGFLYLAIEF [TEK_Y899_Y897F_YF] 0.414
NTFEKYLEEEF [TF_Y669_G671E_YF] 0.969

target: SHP2 N-SH2 domain wild-type; test: as above; details: peptide library: pTyr-Var

Enrichment score, inactive:
ETCLAYREKRI [TEKT1_Y118] 0.54
SSQTVYQRVEG [TFR2_Y23] 0.739
SDYSSYARTSI [TERT_Y949] 0.67
NTYEKYLEEEY [TF_Y669_G671E] 0.82
PEVSGYCHYAD [TG_Y234_C237Y] 0.864
RRNSPYSQTMK [TET2_Y819] 0.366
NREGVYTVFAP [TGFBI_Y537] 0.891
CEHRGCLYLAI [TEK_Y897_Y897C] 1.16
VDYQPYRKHKY [TEX37_Y28] 1.07
SHMVDYQPYRK [TEX37_Y25] 0.81
PEVSGYCHFAD [TG_Y234_C237Y_YF] 1.69
CEHRGSLYLAI [TEK_Y897_Y897S] 1.11
LQRCKNSHMEP [TEX45_Y434_Y434N] 1.47
VNYQPYRKHKY [TEX37_Y28_D24N] 0.353
TDISLYPSGGT [TENM4_Y399_V396I] 0.674
HRGCLYLAIEF [TEK_Y899_Y897C_YF] 0.837
SGDDGYAKDAK [TENM4_Y1530] 0.431
HRGFLYLAIEF [TEK_Y899_Y897F_YF] 0.756
NTFEKYLEEEF [TF_Y669_G671E_YF] 1.06
